Laboratory results from PubChem BioAssay AID286 (DTP/NCI, 2004).
Toxic doses and inconclusive results are not listed. Some entries of the source have several records that differ or are many. This is not the full list of results. An entry can have further records. Values that stand side by side differ for a reason that is not stated; some may be repeats, others may stem from another dose, organism or construct than stated.

System: BDF1 mice, M5076 sarcoma ip, median survival T/C
Test: NCI In Vivo Anticancer Drug Screen. Data for tumor model Sarcoma M5076 (intraperitoneal) in B6D2F1 (BDF1) mice
Conditions: endpoint: median survival time, schedule: Q04DX005 (ip), vehicle: saline, higher = longer survival
Procedure: The antitumor activity of compounds was measured in mice bearing transplantable tumors. Survival or tumor size were measured and the results are expressed as the measurement made in the treated group (T) divided by the measurement made in the vehicle treated control group (C). The tumor model used in this assay is Sarcoma M5076 (intraperitoneal) in B6D2F1 (BDF1) mice

With `O=c1[nH]cc(F)c(=O)[nH]1` as the compound, how does the T/C (dose: 12.5 mg/kg/injection) read?
The T/C was 107 % of control and 196 % of control.

What about the T/C (dose: 25.0 mg/kg/injection) of the same compound?
Its T/C is 119 % of control and 192 % of control.

For `N[C@H](C(=O)O)[C@@H]1CC(Cl)=NO1`, which T/C (dose: 30.0 mg/kg/injection) is on record?
Its T/C is 119 % of control and 155 % of control.
